Laboratory results from publication PMC4455107.
Results are given in words; binding and its absence hold for the method and conditions named. Binding seen in cells or lysates may run through a third protein. Some binding calls cover weakened binding; strength is not graded here. For some assays here: Where a sequence is shown, tags or fusion partners need not be part of it.

Protein sequences, listed by entry. Tags and fused reporters are not part of them.
UniProt Q01650: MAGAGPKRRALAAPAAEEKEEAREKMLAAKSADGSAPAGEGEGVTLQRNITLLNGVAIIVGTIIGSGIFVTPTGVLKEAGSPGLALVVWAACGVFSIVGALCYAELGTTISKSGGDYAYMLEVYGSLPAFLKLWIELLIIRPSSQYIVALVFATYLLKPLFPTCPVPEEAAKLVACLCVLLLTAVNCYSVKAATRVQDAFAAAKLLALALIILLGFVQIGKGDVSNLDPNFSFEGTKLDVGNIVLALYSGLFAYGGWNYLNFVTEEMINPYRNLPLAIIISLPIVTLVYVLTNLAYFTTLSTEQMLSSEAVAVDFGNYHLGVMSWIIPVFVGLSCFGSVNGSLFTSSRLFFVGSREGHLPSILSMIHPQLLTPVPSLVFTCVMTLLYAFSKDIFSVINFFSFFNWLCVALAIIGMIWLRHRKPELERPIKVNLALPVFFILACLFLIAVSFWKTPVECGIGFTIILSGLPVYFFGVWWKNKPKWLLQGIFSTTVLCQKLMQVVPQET

Experiments:
[1] = target: T1, HA-ΔC-LAPTM4b (amino acids 1–181) (human) (UniProt Q86VI4); experiment: co-IP; HeLa cells co-transfected; IP of HA-LAPTM4b (wild type or ΔN, ΔC, ΔNΔC) with anti-HA antibody coupled to Protein G Sepharose, immunoblot with anti-mCherry (SNAT2, ASCT2) or anti-FLAG (4F2hc)
T1 sequence: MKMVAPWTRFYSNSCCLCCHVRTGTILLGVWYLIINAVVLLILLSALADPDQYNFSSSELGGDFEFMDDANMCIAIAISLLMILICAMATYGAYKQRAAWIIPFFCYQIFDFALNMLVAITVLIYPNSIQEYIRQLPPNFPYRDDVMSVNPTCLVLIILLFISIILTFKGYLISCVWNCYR

[2] = target: T2, HA-ΔN-LAPTM4b (amino acids 21–226) (human) (UniProt Q86VI4); experiment: as above
T2 sequence: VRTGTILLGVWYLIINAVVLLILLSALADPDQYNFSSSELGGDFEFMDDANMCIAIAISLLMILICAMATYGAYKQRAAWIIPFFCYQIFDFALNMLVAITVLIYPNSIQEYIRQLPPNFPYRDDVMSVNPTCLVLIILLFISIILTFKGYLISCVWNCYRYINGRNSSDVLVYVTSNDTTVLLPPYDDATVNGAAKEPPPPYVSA

[3] = target: T3, HA-ΔNΔC-LAPTM4b (amino acids 21–181) (human) (UniProt Q86VI4); experiment: as above
T3 sequence: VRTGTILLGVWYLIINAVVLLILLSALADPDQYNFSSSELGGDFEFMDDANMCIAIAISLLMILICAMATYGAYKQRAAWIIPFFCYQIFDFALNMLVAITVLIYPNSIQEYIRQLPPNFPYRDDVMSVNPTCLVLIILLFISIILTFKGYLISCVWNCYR

[4] = target: Flag-LAT1 (SLC7A5) (human) (UniProt Q01650); experiment: co-IP; HeLa cells co-transfected with HA-LAPTM4b and FLAG-LAT1 or FLAG-4F2hc; IP from 1 mg cleared lysate with anti-Flag M2 affinity beads, immunoblot with anti-HA; the interaction was not dependent on amino-acid stimulation (Supplementary Fig. 1e,f)
[5] = target: Flag-4F2hc (CD98, SLC3A2) (human) (UniProt P08195); experiment: as above
[6] = target: endogenous LAT1 (SLC7A5) (human (endogenous in HeLa)) (UniProt Q01650); experiment: co-IP; endogenous proteins; IP of LAT1 from 1.5 mg of cleared HeLa cell lysate, immunoblot with anti-LAPTM4b antibodies
[7] = target: T4, HA-LAPTM4b (lysosomal-associated transmembrane protein 4b, 24-kDa isoform, wild type) (human) (UniProt Q86VI4); experiment: co-IP; HeLa cells co-transfected; IP of HA-LAPTM4b (wild type or ΔN, ΔC, ΔNΔC) with anti-HA antibody coupled to Protein G Sepharose, immunoblot with anti-mCherry (SNAT2, ASCT2) or anti-FLAG (4F2hc)
T4 sequence: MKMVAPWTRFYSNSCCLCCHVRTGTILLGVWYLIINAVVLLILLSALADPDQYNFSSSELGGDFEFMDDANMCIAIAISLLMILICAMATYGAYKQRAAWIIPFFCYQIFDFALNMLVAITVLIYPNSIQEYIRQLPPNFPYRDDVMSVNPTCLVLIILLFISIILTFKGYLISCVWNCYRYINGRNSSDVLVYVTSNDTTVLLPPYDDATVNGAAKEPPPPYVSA

Flag-4F2hc (CD98, SLC3A2) (from UniProt P08195 1-529)
binding [1]: binds
binding [2]: binds
binding [3]: binds

B1: HA-LAPTM4b (lysosomal-associated transmembrane protein 4b, 24-kDa isoform, wild type) (protein, UniProt Q86VI4-2 1-226)
chain: T4 sequence
binding [4]: binds
binding [5]: binds

B2: endogenous LAPTM4b (protein, UniProt Q86VI4 1-317)
chain: MTSRTRVTWPSPPRPLPVPAAAAVAFGAKGTDPAEARSSRGIEEAGPRAHGRAGREPERRRSRQQRRGGLQARRSTLLKTCARARATAPGAMKMVAPWTRFYSNSCCLCCHVRTGTILLGVWYLIINAVVLLILLSALADPDQYNFSSSELGGDFEFMDDANMCIAIAISLLMILICAMATYGAYKQRAAWIIPFFCYQIFDFALNMLVAITVLIYPNSIQEYIRQLPPNFPYRDDVMSVNPTCLVLIILLFISIILTFKGYLISCVWNCYRYINGRNSSDVLVYVTSNDTTVLLPPYDDATVNGAAKEPPPPYVSA
binding [6]: binds

B3: mCherry-ASCT2 (SLC1A5) (protein, UniProt Q15758 1-541)
chain: MVADPPRDSKGLAAAEPTANGGLALASIEDQGAAAGGYCGSRDQVRRCLRANLLVLLTVVAVVAGVALGLGVSGAGGALALGPERLSAFVFPGELLLRLLRMIILPLVVCSLIGGAASLDPGALGRLGAWALLFFLVTTLLASALGVGLALALQPGAASAAINASVGAAGSAENAPSKEVLDSFLDLARNIFPSNLVSAAFRSYSTTYEERNITGTRVKVPVGQEVEGMNILGLVVFAIVFGVALRKLGPEGELLIRFFNSFNEATMVLVSWIMWYAPVGIMFLVAGKIVEMEDVGLLFARLGKYILCCLLGHAIHGLLVLPLIYFLFTRKNPYRFLWGIVTPLATAFGTSSSSATLPLMMKCVEENNGVAKHISRFILPIGATVNMDGAALFQCVAAVFIAQLSQQSLDFVKIITILVTATASSVGAAGIPAGGVLTLAIILEAVNLPVDHISLILAVDWLVDRSCTVLNVEGDALGAGLLQNYVDRTESRSTEPELIQVKSELPLDPLPVPTEEGNPLLKHYRGPAGDATVASEKESVM
binding [7]: no binding

B4: mCherry-SNAT2 (SLC38A2) (protein, UniProt Q96QD8 1-506)
chain: MKKAEMGRFSISPDEDSSSYSSNSDFNYSYPTKQAALKSHYADVDPENQNFLLESNLGKKKYETEFHPGTTSFGMSVFNLSNAIVGSGILGLSYAMANTGIALFIILLTFVSIFSLYSVHLLLKTANEGGSLLYEQLGYKAFGLVGKLAASGSITMQNIGAMSSYLFIVKYELPLVIQALTNIEDKTGLWYLNGNYLVLLVSLVVILPLSLFRNLGYLGYTSGLSLLCMVFFLIVVICKKFQVPCPVEAALIINETINTTLTQPTALVPALSHNVTENDSCRPHYFIFNSQTVYAVPILIFSFVCHPAVLPIYEELKDRSRRRMMNVSKISFFAMFLMYLLAALFGYLTFYEHVESELLHTYSSILGTDILLLIVRLAVLMAVTLTVPVVIFPIRSSVTHLLCASKDFSWWRHSLITVSILAFTNLLVIFVPTIRDIFGFIGASAASMLIFILPSAFYIKLVKKEPMKSVQKIGALFFLLSGVLVMTGSMALIVLDWVHNAPGGGH
binding [7]: no binding
